Data reported in patent US20160137740A1 (AstraZeneca / MedImmune, published 2016).

Tests used:
Human OX40 = target: T1, Human OX40 (human, UniProt P43489 29-277); assay: cell-based or functional assay
T1 sequence: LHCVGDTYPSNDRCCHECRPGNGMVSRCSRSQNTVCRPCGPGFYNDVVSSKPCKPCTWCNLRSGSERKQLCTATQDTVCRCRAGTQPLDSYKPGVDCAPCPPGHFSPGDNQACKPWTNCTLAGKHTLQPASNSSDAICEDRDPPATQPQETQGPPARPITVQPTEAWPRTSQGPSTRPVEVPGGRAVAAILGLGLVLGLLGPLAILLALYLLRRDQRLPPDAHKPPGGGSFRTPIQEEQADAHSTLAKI

Rat OX40 = target: T2, Rat OX40 (rat, UniProt P15725 20-271); assay: flow cytometry on activated primary rat CD4+ T cells
T2 construct: whole, on cells; also called rat CD134
T2 sequence (looked up): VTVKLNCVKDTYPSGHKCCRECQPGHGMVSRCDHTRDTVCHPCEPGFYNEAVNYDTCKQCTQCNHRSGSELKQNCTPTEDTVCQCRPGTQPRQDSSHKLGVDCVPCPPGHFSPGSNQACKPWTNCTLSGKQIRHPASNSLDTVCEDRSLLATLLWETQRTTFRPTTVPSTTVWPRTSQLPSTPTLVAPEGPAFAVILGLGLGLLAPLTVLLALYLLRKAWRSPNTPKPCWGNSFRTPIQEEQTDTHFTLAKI
Method: Rat CD4⁺ T cells (1×10⁶ per mL complete medium) were cultured overnight in a T75 cell culture flask with 1 μg/mL concanavalin A (Con A) and 500 IU/mL IL-2, to activate T cells and induce OX40 expression, and incubated overnight. Activated CD4⁺ T cells were removed from the flask and 100,000 cells were transferred to each well of a non-tissue culture treated 96-well round-bottom plate for binding assays and washed with FACS buffer. Binding was performed with 10 μg/mL OX40mAb24, 9B12 or mouse anti-rat CD134, clone OX40 (positive control) antibody serially diluted 3-fold for a 10 point data curve in FACS buffer. For negative controls, 10 μg/mL R347 human IgG1 or mouse IgG1 clone MOPC-21 were serially diluted 6-fold for a 3 point data curve. 100 μL of OX40mAb24 control protein, 9B12 or clone OX40 antibody was added to CD4⁺ T cells in duplicate and incubated. Following primary incubation, cells were washed with 200 μL of 4° C. […] Following secondary antibody incubation, cells were processed for flow cytometry as described in Section 2.3.

[1] = target: T3, Human TNFRSF16 (NGFR) expressed on HEK293 cells (human, UniProt P08138 29-427); assay: flow cytometry histogram, transiently transfected HEK293 cells, goat anti-human AlexaFluor 647 secondary [panel A]
T3 construct: whole, on cells; also called NGF receptor
T3 sequence (looked up): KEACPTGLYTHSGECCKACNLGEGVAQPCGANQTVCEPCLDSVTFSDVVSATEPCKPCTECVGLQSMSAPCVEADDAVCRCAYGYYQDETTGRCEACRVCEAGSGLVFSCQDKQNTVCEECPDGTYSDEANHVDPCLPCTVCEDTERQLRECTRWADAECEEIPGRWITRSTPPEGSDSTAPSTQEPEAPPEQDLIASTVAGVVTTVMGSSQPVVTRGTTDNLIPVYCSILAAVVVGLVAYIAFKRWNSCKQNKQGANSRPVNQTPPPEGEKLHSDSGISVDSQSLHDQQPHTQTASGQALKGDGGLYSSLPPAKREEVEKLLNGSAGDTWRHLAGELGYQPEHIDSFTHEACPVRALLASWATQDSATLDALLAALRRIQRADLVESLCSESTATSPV
From the text: (§1) cDNA constructs capable of directing the expression of individual TNFRSF members, when transfected into mammalian cells, were obtained from Origene Technologies, Rockville, Md. These cDNA constructs were amplified and purified by the Protein Sciences group at MedImmune in Gaithersburg, Md. for use in transient transfections. […] Forty-eight hours post transfection, cells were removed from tissue culture plates by trypsinization. […] Cells were then suspended in cold FACS buffer (PBS+2% FBS) and plated into 96 well non-tissue culture-treated plates for binding studies with TNFRSF member-specific mAbs (Table 3-3) and OX40mAb24.
(§2) For binding of antibodies or OX40mAb24, HEK cells were pelleted, FACS buffer removed, and cells suspended in FACS buffer containing 2 μg/mL propidium iodide (PI) and either a fluorochrome-labeled mAb, specific for the transfected TNFRSF member, at a concentration recommended by the manufacturer or with OX40mAb24 at a concentration of 1 μg/mL. For binding controls, cells were separately incubated with fluorochrome-labeled isotype control antibodies. […] Thereafter, cells incubated with fluorochrome-labeled monoclonal antibodies were washed in cold FACS buffer and then binding events collected and analyzed by flow cytometry using an LSRII flow cytometer (BD Biosciences, San Jose, Calif.) and FlowJo software, as described in Section 3.2.3. […]

[2] = target: T4, Human TNFRSF1β (TNFR2) expressed on HEK293 cells (human, UniProt P20333 23-461); assay: as above
T4 construct: whole, on cells; also called TNFRSF1B; CD120b
T4 sequence (looked up): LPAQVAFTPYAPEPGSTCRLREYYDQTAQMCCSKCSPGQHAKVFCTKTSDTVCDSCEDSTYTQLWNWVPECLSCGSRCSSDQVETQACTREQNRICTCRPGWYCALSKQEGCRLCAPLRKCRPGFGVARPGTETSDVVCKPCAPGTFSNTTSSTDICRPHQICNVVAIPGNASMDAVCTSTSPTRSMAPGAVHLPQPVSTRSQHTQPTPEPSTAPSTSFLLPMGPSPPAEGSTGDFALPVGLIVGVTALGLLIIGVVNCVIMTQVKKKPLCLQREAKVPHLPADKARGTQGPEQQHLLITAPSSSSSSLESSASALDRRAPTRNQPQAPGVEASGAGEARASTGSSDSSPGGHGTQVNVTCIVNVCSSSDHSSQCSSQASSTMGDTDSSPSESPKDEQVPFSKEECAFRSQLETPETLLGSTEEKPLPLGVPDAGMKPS
From the text: as §1, §2

B1: OX40mAb24 (antibody, human IgG1, kappa)
heavy: QVQLQESGPGLVKPSQTLSLTCAVYGGSFSSGYWNWIRKHPGKGLEYIGYISYNGITYHNPSLKSRITINRDTSKNQYSLQLNSVTPEDTAVYYCARYKYDYDGGHAMDYWGQGTLVTVSSASTKGPSVFPLAPSSKSTSGGTAALGCLVKDYFPEPVTVSWNSGALTSGVHTFPAVLQSSGLYSLSSVVTVPSSSLGTQTYICNVNHKPSNTKVDKRV[skipping human IgG1 Fc]
light: DIQMTQSPSSLSASVGDRVTITCRASQDISNYLNWYQQKPGKAPKLLIYYTSKLHSGVPSRFSGSGSGTDYTLTISSLQPEDFATYYCQQGSALPWTFGQGTKVEIKRTVAAPSVFIFPPSDEQLKSGTASVVCLLNNFYPREAKVQWKVDNALQSGNSQESVTEQDSKDSTYSLSSTLTLSKADYEKHKVYACEVTHQGLSSPVTKSFNRGEC
notes: Humanized from 9B12; human IgG1 kappa; also called humanized anti-human OX40 IgG1κ monoclonal antibody
EC50, CD4+ T cell proliferation, donor 367 (Human OX40): 0.038 nM | EC50, CD4+ T cell proliferation, donor 645 (Human OX40): 0.0083 nM | EC50, CD4+ T cell proliferation, donor 651 (Human OX40): 0.016 nM | EC50, CD4+ T cell proliferation, donor 661 (Human OX40): 0.051 nM | binding result (Rat OX40): no binding (tested: 10 µg/mL) | binding result [1]: no binding (tested: 1 µg/mL) | binding result [2]: no binding (tested: 1 µg/mL)
